Experimental data reported in PubChem BioAssay AID1345083 (National Center for Advancing Translational Sciences (NCATS), 2018).
About 6,200 (6.6%) of roughly 94,000 compounds were called active. The inconclusive results got no clear call from the source; some entries with a clear call stand among them for comparison. Calls come from the whole dose curve; as a rule, active = well fitted inhibition curve with a large enough effect; inconclusive = small, poorly fitted or top-dose-only effect; inactive = flat fitted curve, though single readings scatter. Potencies beside an inconclusive call are fits to weak or partial responses and may not hold up.

Assay: Cytotoxic Profiling in HEK 293 Cell Line of Diverse Libraries Using Quantitative High-Throughput Screening; note: nearly all actives have a fitted effect of over 60% in size
Conditions: HEK 293 viability, ATP luminescence (CellTiter-Glo), 48-72 h; series mostly up to 115 µM
In short: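 Read-out: CellTiter-Glo ATP luminescence. Cells: HEK 293, 250 cells/well. Exposure: 48 or 72 hr, 37 degree Celsius.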
Potency is the fitted concentration of half-maximal effect; tags give direction and shape of the fitted curve.

SMILES	Potency
O=C(c1cccc(Cl)c1)N1CCCN(c2ccc3nnc(-c4ccccc4)n3n2)CC1	inconclusive: 35.5 µM [inhibitor, full curve]
COc1ccc2[nH]c3c(c2c1)CCNC31CCN(C(=O)COc2ccc(F)cc2)CC1	inconclusive: 25.1 µM [inhibitor, partial curve, poor fit]
CC(C)c1nc2c(c(-c3ccc(O)cc3)n1)CN(Cc1cccnc1)CC2	inactive
CCOc1ccc(NC(=O)c2nnn3cc(C)[nH]c(=O)c23)cc1	inactive
O=C1COCC2(CN(c3ccc(C(F)(F)F)cn3)C2)CN1c1ccccc1F	inconclusive: 79.4 µM [inhibitor, partial curve]
O=C1c2cnc(-c3ccsc3)nc2OCCN1CC1CC1	inconclusive: 112 µM [inhibitor, partial curve, poor fit]
Cc1nn(-c2ccccc2)c2c1C(C)N(C1CCN([S+](=O)([O-])c3ccccc3)C1)C2=O (configuration not stated)	inconclusive: 31.6 µM [inhibitor, full curve, poor fit]
CC(C)c1noc(-c2cn(C3CCN(C(=O)c4cccc5[nH]ccc45)CC3)nn2)n1	active: 44.7 µM
COc1ccc(OCC2CN(Cc3cccc(F)c3)C(=O)c3ccc(C)nc3O2)cc1 (configuration not stated)	inconclusive: 44.7 µM [inhibitor, partial curve, poor fit]
O=c1c2c(n(CCOc3ccccc3)n1-c1ccccc1)CN(Cc1ccc(F)cc1)CC2	inconclusive: 50.1 µM [inhibitor, partial curve, poor fit]
N#CC1(c2ccc(-c3cccc(CN4CCOCC4)c3)cc2)CCCC1	inconclusive: 50.1 µM [inhibitor, partial curve, poor fit]
O=C(C1CCCC1)N1CCC2(CC1)CC(N(Cc1ccccc1)C1CC1)CCO2 (configuration not stated)	inconclusive: 44.7 µM [inhibitor, partial curve, poor fit]
O=C(NCCc1ccccc1)c1ccc2c(c1)OCCN(CCC(F)(F)F)C2	inconclusive: 112 µM [inhibitor, single point]
Cc1nn(-c2ccccc2)c2c1C(C)N(C1CCN(C(=O)c3ccccc3F)CC1)C2=O (configuration not stated)	inconclusive: 44.7 µM [inhibitor, partial curve, poor fit]
CNC(=O)N1CCCC1c1nc(C2CN(S(=O)(=O)c3c(C)noc3C)C2)no1 (configuration not stated)	inactive
Cc1ccc(-c2nc(C(=O)N3CCN(c4cccc(C)c4)CC3)no2)cc1	inconclusive: 89.1 µM [inhibitor, single point]
Cc1ccc(F)cc1S(=O)(=O)N1C[C@@H](C)[C@@](C)(O)C1	inactive
COc1ccccc1-c1[nH]nc2ncc(C(=O)NCc3ccccc3)nc12	inconclusive: 63.1 µM [inhibitor, full curve, poor fit]
CC(c1ccc(-c2cc(N)ccn2)cc1)N1CCCCC1 (configuration not stated)	inconclusive: 79.4 µM [inhibitor, partial curve, poor fit]
COc1ccc(CCN2CCC(CN(C)C(=O)NCc3ccccc3)CC2)cc1	inactive
COc1cccc(N2C(=O)NC(=NC3CCCCC3)C23CCN(Cc2ccc(N(C)C)cc2)CC3)c1	inactive

SMILES	Potency
Cc1cnc(C(=O)NC2C[C@H]3CC[C@@H](C2)N3C(=O)c2ccc(OC(F)(F)F)cc2)cn1 (some centres not stated)	inconclusive: 89.1 µM [inhibitor, single point]
Cn1nccc1CN1CCC2(CC1)CC(=O)c1ccccc1O2	inconclusive: 79.4 µM [inhibitor, partial curve, poor fit]
COc1cc2c(cc1CN1C[C@H]3CC[C@@H]1CN(C(=O)c1cnccn1)C3)CCC2	inconclusive: 56.2 µM [inhibitor, partial curve, poor fit]
O=C1CC(c2noc(-c3ccccc3F)n2)CN1C1CCCCC1 (configuration not stated)	inconclusive: 89.1 µM [inhibitor, single point]
Oc1ccccc1CN1CCC(n2cc(-c3ccc(F)cc3)nn2)CC1	inconclusive: 79.4 µM [inhibitor, partial curve]
COCCc1noc(-c2ccccc2OC2CN(C(=O)CC(C)C)C2)n1	inactive
Cc1ccc(-c2noc([C@@H]3Cc4nc[nH]c4CN3C(=O)Nc3cccc(F)c3)n2)cc1	active: 79.4 µM
Cc1ccc(C2NC(=O)N(CC(=O)NC(C)CCc3ccccc3)C3=C2C(=O)OC3)cc1 (configuration not stated)	inconclusive: 31.6 µM [inhibitor, full curve]
COc1ccc(-c2nc(C(=O)NC3CC3)n3ccccc23)cc1	inconclusive: 44.7 µM [inhibitor, full curve, poor fit]
CCn1cc(-c2ccc(C)cc2)cc1C(=O)NCc1cccnc1	inconclusive: 56.2 µM [inhibitor, partial curve, poor fit]
COc1ccccc1C(=O)N1CCC(C(=O)N2CCC(c3ccccc3)CC2)CC1	inconclusive: 35.5 µM [inhibitor, full curve]
CCCS(=O)(=O)N1CC(Oc2ccc(-c3noc(-c4cccnc4)n3)cc2)C1	inconclusive: 15.8 µM [inhibitor, full curve, poor fit]
Cc1noc2c(NC3CCC(O)CC3)cc(-c3cccs3)nc12 (configuration not stated)	inconclusive: 112 µM [inhibitor, single point]
O=C(c1cn[nH]c1)N1CCC(c2nc(CCOCC3CCOCC3)no2)C1 (configuration not stated)	inactive
CCNC(=O)CCc1c(C)nn(-c2ccc(F)cc2)c1Oc1ccccc1C	inconclusive: 56.2 µM [inhibitor, partial curve, poor fit]
O=C(NCCc1ccccc1F)c1ccc2nnc(Cc3ccc(Cl)cc3)n2c1	inconclusive: 56.2 µM [inhibitor, partial curve, poor fit]
COc1ccccc1-c1cc(-c2ccc(N3CCOCC3)cc2)c2onc(C)c2n1	inconclusive: 126 µM [inhibitor, single point]
CCOC(=O)CN1Cc2ccccc2N(CC(O)COc2ccc(OC)cc2)CCC1=O (configuration not stated)	inconclusive: 79.4 µM [inhibitor, partial curve, poor fit]
CNC(=O)c1cc(C)nc2onc(C3CCCN(C(=O)Cc4ccc(F)cc4)C3)c12 (configuration not stated)	inactive
COc1ccc(NC(=O)c2c(OC)cc(=O)n3c2CCCC3)cc1	inactive
CNC(=O)c1cc(-c2ccccc2F)nc2c1cnn2C	inconclusive: 100 µM [inhibitor, partial curve, poor fit]

SMILES	Potency
Cn1ncc2c(C(=O)NCc3cccs3)cc(-c3ccccc3F)nc21	inconclusive: 89.1 µM [inhibitor, single point]
CCN(CC)C(=O)[C@@H](C)C1CC[C@@]2(C)CC[C@H](NC(=O)c3ccncc3)[C@@H](C)[C@@H]2[C@H]1O (some centres not stated)	inactive
Cc1cccc(-c2ccc3c(c2)C(=O)N2CC[C@H](NC(=O)c4cccnc4)C[C@H]2C(=O)N3)c1C	inconclusive: 89.1 µM [inhibitor, single point]
CCn1ccc2sc(C)c(C(=O)N3CCC(Cc4ccccc4)CC3)c2c1=O	inconclusive: 56.2 µM [inhibitor, partial curve, poor fit]
CCN1c2cc(C(=O)Nc3ccc(Cl)cc3C)ccc2C(=O)N2CCCCCC21 (configuration not stated)	inconclusive: 8.91 µM [inhibitor, full curve, poor fit]
Cn1cnc2cc(C(=O)N3CCC4(CC3)OCCCC4O)ccc21 (configuration not stated)	inactive
COc1ccc(CN2CCC3(CC2)CC(=O)c2ccc(Cl)cc2O3)cc1	active: 39.8 µM
Cc1noc(-c2ccc(N3CCN(C/C=C/c4ccccc4)CC3)nc2)n1	inconclusive: 56.2 µM [inhibitor, partial curve, poor fit]
CN(CCc1ccccn1)C(=O)C1CCCN(c2cnn(Cc3ccccc3)c(=O)c2)C1 (configuration not stated)	inconclusive: 89.1 µM [inhibitor, single point]
CN(C)CCNC(=O)c1ccnc(-c2nnc3ccc(N(C)c4ccccc4)nn23)c1	inconclusive: 126 µM [inhibitor, single point]
COCCNC(=O)CCCN1C(=O)COc2ccc(C(=O)COc3ccc(C(C)(C)C)cc3)cc21	inconclusive: 22.4 µM [inhibitor, full curve, poor fit]
CC(C)(Oc1nn(CCOc2ccccc2)c2ccccc12)C(=O)Nc1cccnc1	inconclusive: 79.4 µM [inhibitor, partial curve, poor fit]
CC(=O)N1CCN(C(=O)C2CCc3nnc(CNC(=O)NC(C)(C)C)n32)CC1 (configuration not stated)	inactive
CCOc1ccc(CC(=O)N2CCC(Cc3nc(C(C)C)no3)CC2)cc1	inconclusive: 79.4 µM [inhibitor, single point]
O=C1CC(c2ccccc2)N(Cc2ccncc2)CCCN(C(=O)Nc2ccccc2F)CCN1 (configuration not stated)	inactive
Fc1ccc(CNc2cc3c(cn2)CN(Cc2ccncc2)CCN3)cc1	inactive
O=C(Nc1ccc([C@H]2OCC(=O)N(Cc3ccc(F)cc3)[C@@H]2CO)cc1)c1ccccc1	inconclusive: 100 µM [inhibitor, partial curve, poor fit]
Cc1ccc(C(=O)N2CCCCCCNC(=O)[C@@H]3C[C@@H](c4nc(Cc5ccccc5)no4)C[C@@H]32)cn1	inconclusive: 100 µM [inhibitor, partial curve, poor fit]
O=C(c1cc2ccccc2[nH]1)N1CCC2(CCCCO2)CC1	inconclusive: 89.1 µM [inhibitor, single point]
O=C(NC1CCCN(c2ccc3nnc(-c4ccccc4)n3n2)C1)c1ccncc1 (configuration not stated)	inconclusive: 50.1 µM [inhibitor, partial curve, poor fit]
